{"source": "PubChem BioAssay AID1240", "about": "(Sanford-Burnham Center for Chemical Genomics, 2008)", "note": "The whole screen tested about 50,000 compounds, of which about 800 (1.6%) showed an effect of 50% or more. The list shows a part of the results."}
{"target": "Bcl-2-like protein 10 (Homo sapiens) (UniProt Q9HD36)", "sequence (Q9HD36 whole entry, looked up)": "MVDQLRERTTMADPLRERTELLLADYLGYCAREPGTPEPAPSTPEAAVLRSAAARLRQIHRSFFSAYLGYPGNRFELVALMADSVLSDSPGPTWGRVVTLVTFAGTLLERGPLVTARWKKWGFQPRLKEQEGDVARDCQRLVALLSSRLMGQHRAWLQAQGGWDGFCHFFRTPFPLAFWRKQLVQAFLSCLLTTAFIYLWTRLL", "experiment": "TR3 peptide-Bcl-B binding displacers, biochemical primary FP assay, phenotype converters (AID 1240);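 note: 0% = Bcl-B with tracer peptide and DMSO and 100% = tracer peptide lacking Bcl-B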", "conditions": "GST-Bcl-B / FITC-TR3 peptide fluorescence polarization; stronger effect = higher value; compound at 3.75 mg/L", "units": {"displacement": "%"}}
{"compound": "COC(=O)c1c(N)sc(C(=O)Nc2ccc(OC)cc2)c1C", "displacement": -5.1}
{"compound": "COc1ccc(CC(=O)Nc2cccc(I)c2)cc1OC", "displacement": -9.2}
{"compound": "O=C(COc1ccccc1[N+](=O)[O-])N/N=C/c1cc(I)ccc1O", "displacement": 25.9}
{"compound": "COc1cc([N+](=O)[O-])ccc1NC(=O)COc1ccc(-c2ccc(C)cc2)cc1", "displacement": -9}
{"compound": "COc1ccc(-c2nnnn2C)cc1S(=O)(=O)Nc1ccc(Br)cc1", "displacement": 7.3}
{"compound": "CN1C(=O)/C(=C\\c2ccc(Sc3ccc(Cl)cc3)o2)SC1=S", "displacement": -6.7}
{"compound": "O=C1NC(=S)S/C1=C/c1cc(Br)ccc1OCc1ccccc1Cl", "displacement": 2.9}
{"compound": "CCCCCCNC(=O)CN1C(=O)c2ccccc2C1=O", "displacement": 6.7}
{"compound": "CC1(C)c2ssc(=S)c2-c2ccccc2N1C(=O)CN1CCOCC1", "displacement": 6.4}
{"compound": "O=S(=O)(/N=C(/Nc1cccc(O)c1)c1ccccc1)c1ccccc1", "displacement": 10.6}
{"compound": "CCC1(CO)COC(c2ccco2)OC1", "note": "(stereo not drawn)", "displacement": 4.7}
{"compound": "COC(=O)c1ccccc1NC(=O)c1ccc(CN2CCc3ccccc3C2)cc1", "displacement": 9.2}
{"compound": "CCCN1CCC(=NNC(=O)CCC(=O)NN=C2CCN(CCC)CC2)CC1", "displacement": -21.5}
{"compound": "Cc1ccc(N/C(N)=N\\c2nc(C)cc(C)n2)c(C)c1", "displacement": -4}
{"compound": "O=c1[nH]c(=O)n(-c2ccc(Cl)cc2)c(O)c1/C=C1/C=CC=N1", "displacement": -46}
{"compound": "COC(=O)c1ccc(C(=O)OC)c(NC(=O)c2ccc(C)c([N+](=O)[O-])c2)c1", "displacement": 22.3}
{"compound": "Nc1cc(-c2nc3ccccc3s2)ccc1Cl", "displacement": -4.5}
{"compound": "Cc1cccc(C2(c3cccc(C)c3)CC2C(=O)Nc2ccccc2F)c1", "note": "(stereo not drawn)", "displacement": -2.5}
{"compound": "COc1nccnc1NS(=O)(=O)c1ccc(NC(=O)c2ccc(C(C)=O)cc2)cc1", "displacement": -3.4}
{"compound": "O=c1c2c(nc3cc(-c4ccc(Cl)cc4)[nH]n13)CCCC2", "displacement": -4.5}
{"compound": "CC1Cn2c(nc3sc4c(c3c2=O)CC(C)(C)OC4)N1CCO", "note": "(stereo not drawn)", "displacement": -0.7}
{"compound": "N#Cc1c(N)[nH]c(=S)c(C#N)c1-c1cccc(F)c1", "displacement": 0.6}
{"compound": "Cc1cc(OCC(=O)Nc2ccccc2[N+](=O)[O-])cc(C)c1Cl", "displacement": 7}
{"compound": "C=CCN1C(=O)/C(=C\\c2ccc(OC)c3ccccc23)C(=O)NC1=S", "displacement": -7.2}
{"compound": "COc1ccccc1C(=O)NNC(=O)c1ccc([N+](=O)[O-])cc1", "displacement": 3.3}
{"compound": "Cc1cc(C)cc(NC(=O)COc2ccc(Cl)cc2C)c1", "displacement": 2.3}
{"compound": "COc1ccc(C2/C(=C(\\O)c3ccc(C)cc3)C(=O)C(=O)N2c2ccc(O)cc2)cc1", "note": "(stereo not drawn)", "displacement": 5.7}
{"compound": "O=C1c2c(Cl)c(Cl)c(Cl)c(Cl)c2C(=O)N1c1ncccn1", "displacement": 8.9}
{"compound": "c1ccc2c(c1)[nH]c1nc(SCCCN3CCOCC3)nnc12", "displacement": -2.1}
{"compound": "Clc1ccc(OCCn2ccnc2)cc1", "displacement": 14.8}
{"compound": "CC1=NNC(=O)C1CCC(=O)N/N=C(\\C)c1ccc(Br)cc1", "note": "(stereo not drawn)", "displacement": -11.1}
{"compound": "CCOC(=O)C1=C(C)N(CCOC)C(=O)/C1=C\\c1ccccc1F", "displacement": 5.4}
{"compound": "CCOC(=O)c1cnc(-c2ccccc2)nc1Nc1ccccc1", "displacement": -10.3}
{"compound": "CCN1CCN(Cc2c(O)ccc3c(=O)c(-c4ccccc4OC)c(C(F)(F)F)oc23)CC1", "displacement": 2.1}
{"compound": "Cc1ccccc1OCC(=O)Nc1cccc(-c2cc3ccccc3oc2=O)c1", "displacement": 1.7}
{"compound": "CC1=C(C(=O)Nc2ccccc2)C(c2cccs2)n2c(s/c(=C\\c3cccs3)c2=O)=N1", "note": "(stereo not drawn)", "displacement": 14.9}
{"compound": "COc1ccccc1N1C(=O)c2ccc(C(=O)Nc3ccc(Br)cc3)cc2C1=O", "displacement": 7.4}
{"compound": "Cc1cc(C(=O)c2ccc(Br)cc2)ccc1S(=O)(=O)Nc1cccc([N+](=O)[O-])c1", "displacement": -11.9}
{"compound": "CCOC(=O)c1ccc(Nc2ncnc3ccc(C)cc23)cc1", "displacement": -2}
{"compound": "CN1c2ccccc2C(C)(C)C12C=Nc1c(ccc3cc4ccccc4cc13)O2", "note": "(stereo not drawn)", "displacement": 10.5}
{"compound": "CCCCOC(=O)c1ccc(NCCC(=O)c2cccc([N+](=O)[O-])c2)cc1", "displacement": -8}
{"compound": "Cc1sc(NC(=O)c2ccccc2C(=O)O)c(C#N)c1C", "displacement": -8.5}
{"compound": "Cc1ccc(C)c(NC(=O)CN(c2ccc(C)c(Cl)c2)S(C)(=O)=O)c1", "displacement": 1}
{"compound": "Cc1ccc(S(=O)(=O)NC2CCCCCCC2)cc1", "displacement": -3.4}
{"compound": "COc1ccccc1CNC(=O)/C=C/c1cccc([N+](=O)[O-])c1", "displacement": 0}
{"compound": "CC(C)c1cc(C(C)C)c(S(=O)(=O)N2CCNCC2)c(C(C)C)c1", "displacement": 11.6}
{"compound": "Cc1cc(OCC(=O)O)cc(C)c1Cl", "displacement": 5.2}
{"compound": "O=C(O)c1ccc(COc2ccc3ccc(=O)oc3c2)cc1", "displacement": 10.5}
{"compound": "O=C(Nc1ncc(Cc2ccc(F)cc2)s1)c1ccccc1Br", "displacement": 11.8}
{"compound": "CCOC(=O)c1ccc(-c2ccc(/C=c3\\sc4nc5ccccc5n4c3=O)o2)cc1", "displacement": 9.1}
{"compound": "O=C(/C=C/c1ccc(F)cc1)Nc1cccc2cccnc12", "displacement": 16.9}
{"compound": "COc1ccc(C2Nc3ccccc3NC3=C2C(=O)CC(c2ccccc2)C3)c(OC)c1", "note": "(stereo not drawn)", "displacement": 5.9}
{"compound": "Oc1cc(N=C/C=C/c2ccc(Cl)cc2)ccc1-c1nc2ccccc2s1", "displacement": 4.7}
{"compound": "CCOc1ccc(NC(=O)CSc2nc3ccccc3s2)cc1", "displacement": -10.1}
{"compound": "COc1cc(S(=O)(=O)N2CCC(C)CC2)c(OC)cc1Cl", "displacement": -7.4}
{"compound": "O=[N+]([O-])c1ccc2c(c1)S(=O)(=O)N=C2Nc1cccnc1", "displacement": 11.6}
{"compound": "COc1ccc(C2/C(=C(/O)c3ccc(C)cc3)C(=O)C(=O)N2CCCn2ccnc2)c(OC)c1", "note": "(stereo not drawn)", "displacement": 2.9}
{"compound": "O=C(Nc1ccc(Cc2ccncc2)cc1)c1ccc2ccccc2n1", "displacement": -3.7}
{"compound": "CC12C(=O)C(C)(C(c3ccccc3)=C1c1ccccc1)C1C(=O)N(c3cccc(C(F)(F)F)c3)C(=O)C12", "note": "(stereo not drawn)", "displacement": 2.6}
{"compound": "CCc1ccccc1NC(=O)COc1cccc(C)c1", "displacement": 2.1}
{"compound": "O=C(Nc1ccccc1F)c1cncc(Br)c1", "displacement": 3.9}
{"compound": "S=C(NCC1CCCO1)Nc1ccccc1", "note": "(stereo not drawn)", "displacement": 7.4}
{"compound": "O=c1cccc(-c2ccc(Br)cc2)o1", "displacement": 18.9}
{"compound": "CCCC12C(=O)C(C)(C(c3ccccc3)=C1c1ccccc1)C1C(=O)N(c3ccccc3Cl)C(=O)C12", "note": "(stereo not drawn)", "displacement": 12.1}
{"compound": "O=S1(=O)CCC(NC(=S)N/N=C/c2cccc3ccccc23)C1", "note": "(stereo not drawn)", "displacement": 5.1}
{"compound": "COc1ccc(OC)c(C2/C(=C(\\O)c3ccccc3)C(=O)C(=O)N2CCCC(=O)O)c1", "note": "(stereo not drawn)", "displacement": -7.1}
{"compound": "O=C1CC(N2CCN(c3ccc([N+](=O)[O-])cc3)CC2)C(=O)N1c1ccc(Br)cc1", "note": "(stereo not drawn)", "displacement": 25.5}
{"compound": "COc1ccc(CNS(=O)(=O)c2ccc(OC)cc2)cc1", "displacement": 9.2}
{"compound": "O=C(O)c1cccc(-c2ccc(C=C3C(=O)c4ccccc4C3=O)o2)c1", "displacement": -2.7}
{"compound": "CCOC(=O)/C(C(=O)Nc1ccc(Cl)cc1Cl)=C1\\NC(C)(C)Cc2ccccc21", "displacement": 7.9}
{"compound": "COc1ccc(C2=C/C(=C\\c3cccnc3)C(=O)O2)cc1", "displacement": 8.2}
{"compound": "Cc1ccc(N2C(=O)NC(=O)/C(=C\\c3ccc(N(C)C)c(Br)c3)C2=O)cc1", "displacement": 10.1}
{"compound": "Cc1ccc2ccc(S(=O)(=O)NCc3cccnc3)cc2c1", "displacement": 6.7}
{"compound": "Cc1n[nH]c(=S)n(/N=C/c2ccccn2)c1=O", "displacement": -12.6}
{"compound": "Cn1nnnc1SCc1c(Cl)cccc1Cl", "displacement": 1.6}
{"compound": "CCOC(=O)C1=C(C)N=c2s/c(=C\\c3ccccc3)c(=O)n2C1c1ccc(F)cc1", "note": "(stereo not drawn)", "displacement": 2.9}
{"compound": "Cc1ccc(-n2[nH]c(C)c(C=Nc3ccc(S(=O)(=O)Nc4nccs4)cc3)c2=O)cc1", "displacement": 4.6}
{"compound": "CC1=C(C(=O)OCC2CCCO2)C(c2cccc(C(F)(F)F)c2)C2=C(CC(C)(C)CC2=O)N1", "note": "(stereo not drawn)", "displacement": 1.1}
{"compound": "CCOc1ccc(/C=N\\NC(=O)c2ccc(Br)cc2)c(O)c1", "displacement": 6.9}
{"compound": "FC(F)(F)c1ccccc1C=NN1CCN(c2ccccn2)CC1", "displacement": -3.3}
{"compound": "O=c1c(C=NCC2CCCO2)c(C(F)(F)F)[nH]n1-c1nc2ccccc2s1", "note": "(stereo not drawn)", "displacement": -10.9}
{"compound": "CCOC(=O)c1ccc(NC(=S)NC(NC(=O)c2ccc(C)cc2)C(Cl)(Cl)Cl)cc1", "note": "(stereo not drawn)", "displacement": -23.6}
{"compound": "Cn1cc(/C=C/C(=O)c2ccc(Cl)cc2)c2ccccc21", "displacement": 20}
{"compound": "c1cncc(CN2CCN(Cc3c[nH]c4ccccc34)CC2)c1", "displacement": -15.8}
{"compound": "C/C(=N\\N=C1\\NC(=O)C(CC(=O)Nc2ccc(C)c(Cl)c2)S1)C(C)C", "note": "(stereo not drawn)", "displacement": 7.8}
{"compound": "COc1ccc(/C=C2/C(=O)NN(c3ccc(C)c(C)c3)C2=O)cc1OC", "displacement": 2}
{"compound": "Cc1ccc(C(=O)N(C)c2ccccc2)cc1[N+](=O)[O-]", "displacement": 10.7}
{"compound": "COc1cc(/C=N/n2cnnc2)ccc1Oc1ccc(C(F)(F)F)cc1[N+](=O)[O-]", "displacement": 12.2}
{"compound": "COc1ccccc1N1CCN(C(=O)COc2ccc(Br)cc2)CC1", "displacement": 4.1}
{"compound": "CC1(C)CC(=O)C2=C(C1)c1c(ccc3ccccc13)NC2c1ccc(N2CCOCC2)cc1", "note": "(stereo not drawn)", "displacement": 9.1}
{"compound": "CSc1ccc(CN2CCN(C(=O)c3ccco3)CC2)cc1", "displacement": -13.1}
{"compound": "O=C(Nc1ccc2oc(-c3cccnc3)nc2c1)c1cc(I)ccc1Cl", "displacement": -5.8}
{"compound": "COc1cccc(OC)c1C(=O)Nc1cc(Cl)c(Cl)cc1Cl", "displacement": -7.1}
{"compound": "O=C(Nc1ccc(Cl)c(Cl)c1)Nn1cnnc1", "displacement": 12.7}
{"compound": "O=C1CC(c2ccccc2)CC2=C1C(c1ccc(O)cc1)Nc1ccc(C(=O)c3ccccc3)cc1N2", "note": "(stereo not drawn)", "displacement": -1.7}
{"compound": "COc1cc(/C=C2/SC(=S)NC2=O)cc(Br)c1OCc1ccccc1F", "displacement": -17.3}
{"compound": "O=C1CSC(c2ccc3c(c2)OCO3)N1c1ccc(Cl)c(Cl)c1", "note": "(stereo not drawn)", "displacement": -1.5}
{"compound": "COc1ccc(Cl)cc1C(=O)Nc1ccc(Nc2ccccc2)cc1", "displacement": 12.9}
{"compound": "O=C1C=C(c2ccccc2)CC(c2cccs2)C1n1cnc([N+](=O)[O-])c1", "note": "(stereo not drawn)", "displacement": -4.9}
{"compound": "CN(C)CCCNC(=O)CN(c1cccc(Cl)c1)S(=O)(=O)c1ccccc1", "displacement": 0.4}
{"compound": "CCOc1ccc2oc(-c3ccccc3)c(C(=O)N(C)C)c2c1", "displacement": 6.9}
{"compound": "O=C1NC(=O)N(c2ccc(Cl)cc2)C(=O)/C1=C\\c1ccc(N2CCCC2)cc1", "displacement": 71.4}
{"compound": "COc1ccc(C=C2C(=O)N(C)C(=O)N(C)C2=O)cc1OC", "displacement": 0.6}
{"compound": "CCOc1ccc2nc(SCC(=O)OC)[nH]c2c1", "displacement": -12}
{"compound": "Cc1ccc(-c2cc(NC(=O)COc3ccc(Cl)cc3Cl)n[nH]2)cc1", "displacement": 8.3}
{"compound": "O=C1CC(NCCc2ccc(Cl)cc2)C(=O)N1c1ccc(Br)cc1", "note": "(stereo not drawn)", "displacement": -6.5}
{"compound": "COc1ccc(C(=O)Nc2cc(C)cc(C)c2)c(OC)c1", "displacement": 15.4}
{"compound": "COc1cc(C=O)c(Br)cc1OCc1ccc(F)cc1", "displacement": 3}
